Measured values published in PubChem BioAssay AID1671194 (National Center for Advancing Translational Sciences (NCATS), 2021).
The campaign covered roughly 140,000 compounds. About 240 (0.17%) were called active. Inconclusive results, whose numbers are uncertain, are shown with a selection of clear calls. Calls follow the shape of the dose curve; as a rule, active = well fitted inhibition curve with a large enough effect; inconclusive = small, poorly fitted or top-dose-only effect; inactive = no such curve, though single readings can be large or run the other way. A potency beside an inconclusive call is a rough fit, not a confirmed value.

assay: Primary qHTS assay for inhibitors of alpha-synuclein gene (SNCA) expression; details: HEK-293 SNCA-luciferase knock-in, luminescence, 24 h; series mostly up to 57.2 µM; also: nearly all actives have a fitted effect of over 45% in size
Potency is read from the fitted curve at half-maximal effect; tags tell the direction and shape of the fitted curve.

Compound | Potency
CN(C)C[C@@H]1CN(S(C)(=O)=O)C[C@H]1NC(=O)c1cc2ccccc2[nH]1 | inactive
Cc1ccc(CNC(=O)N2CCC(Cn3c(C)cnc3C3CCOCC3)CC2)cc1 | inactive
O=C(c1ccsc1)N1CCC(Oc2ccccc2)C1 (configuration not stated) | inconclusive: 0.708 µM [inhibitor, full curve, poor fit]
Cc1ccccc1N1CCN(C(=O)[C@@]23CCCC[C@H]2N(CCC(C)C)C(=O)CC3)CC1 | inactive
Cn1cccc1CN1CCCC2(C1)C(=NC1CCCC1)NC(=O)N2c1cc(F)cc(F)c1 (configuration not stated) | inactive
O=C(NCc1cccc(F)c1)c1cc(-c2cccc(C(F)(F)F)c2)c2nncn2n1 | inconclusive: 39.8 µM [inhibitor, single point]
CCC(=O)N1CCCCCCN(C)C(=O)[C@@H]2CCC[C@@H]21 | inactive
COc1ccccc1N1CCN([C@@H]2[C@H](O)[C@H](CO)O[C@@H]2CNC(=O)Nc2ccccc2)CC1 | inactive
O=C(CCC1CCN(c2cc(NC3CC3)ncn2)CC1)NCc1ccc(F)cc1F | active: 3.55 µM
Cc1cc(Nc2cc(F)ccc2C)nc(-n2nc(C)cc2C)n1 | inconclusive: 7.08 µM [inhibitor, full curve, poor fit]
Cc1nn2c(c1-c1ccccc1C(N)=O)N(CCCc1ccccc1)CCC2 | active: 1.41 µM
COc1ccc(CNC(=O)C[C@@H]2C[C@@H](C(C)C)[C@H](CNC(=O)c3ccc(C#N)cc3)C=C2C)cc1 | inconclusive: 20 µM [inhibitor, single point]
Cc1cccc(-c2ocnc2C(=O)N2C[C@@H](Oc3ccccc3)C[C@H]2C(=O)N2CCCC2)c1 | inconclusive: 7.08 µM [inhibitor, partial curve, poor fit]
CC(CCc1ccccc1)NC(=O)CN1C(=O)C(c2ccccc2)=NC1(C)C (configuration not stated) | inactive
Cc1ccc(CNC(=O)c2ccc3c(c2)CN(Cc2ccc(C)o2)CCO3)cc1 | inactive
COc1ccc(NC(=O)Nc2nnc(N(CC(C)C)CC(C)C)s2)c(OC)c1 | inconclusive: 14.1 µM [inhibitor, partial curve, poor fit]
O=C(CCCc1nc2ccccc2s1)N1CCc2nc3cc(-c4ccccc4)[nH]n3c(=O)c2C1 | inconclusive: 14.1 µM [inhibitor, partial curve, poor fit]
Cc1ccc(NC(=O)c2c(NC(=O)C(F)(F)F)sc3c2CCCCC3)cc1 | inconclusive: 2.24 µM [inhibitor, partial curve, poor fit]
Cc1ccc(C)c(NC(=O)Cn2c(-c3ccc(F)cc3)nc(C)cc2=O)c1 | inconclusive: 2.24 µM [inhibitor, partial curve, poor fit]
O=C(Cn1c(-c2cccs2)cc2ccccc21)NCCCN1CCN(c2ccccc2F)CC1 | inconclusive: 22.4 µM [inhibitor, single point]
CC1(C(=O)N2CCOc3c(O)cc(-c4cccc(Cl)c4)cc3C2)CCCO1 (configuration not stated) | inactive

Compound | Potency
CC1(CNc2ccccc2)COc2ccc(C(=O)Nc3ccc4[nH]ccc4c3)cc2N1 (configuration not stated) | inconclusive: 2.51 µM [inhibitor, full curve, poor fit]
CC(=O)Nc1cccc(-c2cnc3n[nH]c(-c4ccc5c(c4)OCO5)c3n2)c1 | active: 7.08 µM
CCN(CC)c1cc(CCC(=O)NCCN(C)C2CCCCC2)ccn1 | inconclusive: 5.01 µM [inhibitor, full curve, poor fit]
COc1c[nH]c(CN2CCCC(CCc3ccccc3C(F)(F)F)C2)cc1=O (configuration not stated) | inconclusive: 7.08 µM [inhibitor, full curve, poor fit]
C[C@@H]1CN(C(=O)CCN2CCCCCC2=O)C[C@]1(C)O | inconclusive: 11.2 µM [inhibitor, partial curve, poor fit]
CN(c1ccccc1)c1ccc2nnc(-c3cc(C(=O)NC4CCC(O)CC4)ccn3)n2n1 (configuration not stated) | inconclusive: 2.51 µM [inhibitor, full curve, poor fit]
O=C1COc2ccc(N3CCCC3)nc2CN1Cc1ccccc1 | inactive
COc1ccc(-c2nc(C)nc3c2CCN(Cc2cccc4ccccc24)CC3)cc1 | inactive
Cc1ccccc1NC(=O)c1ccc(N(Cc2ccccc2)S(C)(=O)=O)cc1 | inconclusive: 31.6 µM [inhibitor, single point]
COc1ccc(CNC(=O)c2cnc3ccc(C)cn3c2=O)cc1 | inconclusive: 15.8 µM [inhibitor, partial curve]
O=c1c2oc3ccccc3c2n(Cc2cccc(F)c2)c(=O)n1Cc1ccc2c(c1)OCO2 | inconclusive: 39.8 µM [inhibitor, single point]
COc1ccc(C(CC(=O)NCc2ccccc2)c2c[nH]c3ccccc23)cc1OC (configuration not stated) | inactive
O=C1Nc2ccccc2CC12CCN(Cc1ccccc1)C2 (configuration not stated) | inconclusive: 20 µM [inhibitor, partial curve]
O=C(O)C[C@@H]1CCN(C(=O)c2ccc(C(F)(F)F)cc2)C[C@@H]1CCN1CCOCC1 | inconclusive: 1 µM [inhibitor, single point]
COc1ccc(CCN2CCC(CNC(=O)c3cnn(-c4cccc(Cl)c4)c3C3CCN(C(=O)OC(C)(C)C)CC3)CC2)cc1 | inconclusive: 25.1 µM [inhibitor, single point]
CN(Cc1cccc(-n2cccn2)c1)Cc1nc(-c2cccs2)no1 | inconclusive: 3.16 µM [inhibitor, single point]
O[C@H]1CC[C@@H](Cc2cc(-c3ccc(F)cc3)on2)O[C@@H]1CNC1CCCCC1 | inactive
CNC(=O)N1CCC(C2CCN(C(=O)c3cccc(C#N)c3)C2)CC1 (configuration not stated) | inconclusive: 39.8 µM [inhibitor, single point]
CC1CCCN1C(=O)c1cn2cc(-c3cccc(Cl)c3)n(CC3CC3)c(=O)c2n1 (configuration not stated) | inconclusive: 17.8 µM [inhibitor, single point]
Cc1ccc(NC(=O)N2C[C@@H](F)C[C@H]2C(=O)N2CCc3ccccc3C2)cc1C | inactive
COc1ccccc1N1CCN(c2ncnc3c2c(-c2ccccc2)cn3-c2cccc(C)c2)CC1 | inconclusive: 3.98 µM [inhibitor, full curve]
